Laboratory results from PubChem BioAssay AID1345082 (National Center for Advancing Translational Sciences (NCATS), 2018).
About 4,000 (4.3%) of roughly 94,000 compounds were called active. The inconclusive results got no clear call from the source; some entries with a clear call stand among them for comparison. Calls follow the shape of the dose curve; as a rule, active = well fitted inhibition curve with a large enough effect; inconclusive = small, poorly fitted or top-dose-only effect; inactive = no such curve, though single readings can be large or run the other way. Potencies beside an inconclusive call are fits to weak or partial responses and may not hold up.

Assay: Cytotoxic Profiling in NIH 3T3 Cell Line of Diverse Libraries Using Quantitative High-Throughput Screening; also: nearly all actives have a fitted effect of over 55% in size
Conditions: NIH 3T3 viability, CellTiter-Glo ATP luminescence, 48-72 h; activity change, negative = cytotoxicity: at 96.7 µM (top of the series) unless noted; series mostly up to 96.7 µM
In short: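 NIH 3T3 cells at 400 cells/well received 23 nL of compound by pintool and were incubated 48 or 72 h at 37 °C. Viability was read as ATP-coupled CellTiter-Glo luminescence.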
% is scaled to controls: 0 for no effect and ±100 for the full control effect; potency is read from the fitted curve at half-maximal effect; tags tell the direction and shape of the fitted curve.

| SMILES | Potency | activity change, negative = cytotoxicity | outcome |
| --- | --- | --- | --- |
| COc1ccc(C(=O)NCCn2ccn3nc(-c4cc(C)ccc4C)cc3c2=O)c(OC)c1 | inconclusive: 44.7 µM [inhibitor, partial curve, poor fit] |  |  |
| O=C(NCc1ccncc1)c1cc(C2CC2)nc2c1c(C1CCCN1)nn2-c1ccccc1 (stereo not drawn) | active: 20 µM |  |  |
| O=C(c1cccc(F)c1)N1CCC(N2C(=O)C(O)C23CCCCC3)CC1 (stereo not drawn) |  | inactive: -5.3% |  |
| COc1cc(Nc2ccc3nnc(-c4ccccn4)n3n2)cc(OC)c1OC | inconclusive: 100 µM [inhibitor, single point] |  |  |
| CC(C)c1nc2c(c(-c3ccc(O)cc3)n1)CCN(Cc1ccsc1)CC2 | inconclusive: 50.1 µM [inhibitor, partial curve, poor fit] |  |  |
| O=C(NCc1cccc(Cl)c1)c1cc(-c2ccc(F)cc2)c2nncn2n1 | inconclusive: 31.6 µM [inhibitor, full curve, poor fit] |  |  |
| O=C(Cn1nc2n(c1=O)CCCC2)N1CCN(c2ccc(F)cc2)CC1 | inconclusive: 7.94 µM [inhibitor, partial curve, poor fit] |  |  |
| CCOC(=O)C1CCN(C(=O)c2cc(-c3ccc(F)cc3)c3nncn3n2)CC1 | inconclusive: 50.1 µM [inhibitor, partial curve, poor fit] |  |  |
| Cc1nc(N2CCN(C(=O)c3cccc(Cl)c3)CC2)cc(C(F)(F)F)n1 | inconclusive: 31.6 µM [inhibitor, partial curve] |  |  |
| Cc1ccc(C2c3cc(OCc4nc(C(=O)NCC5CC5)co4)ccc3CCN2C(=O)C2CC2)cc1 (stereo not drawn) | active: 28.2 µM |  |  |
| CC(C)C1=NOC2(CCN(C(=O)c3ccc4c(c3)OCO4)C2)C1 (stereo not drawn) | active: 79.4 µM |  |  |
| c1ccc(CNC[C@H]2COCc3nc4ccccc4n32)cc1 | inconclusive: 89.1 µM [inhibitor, partial curve] |  |  |
| CN(Cc1ccc(F)cc1)Cc1ccc(N(C)C)cc1 | inconclusive: 79.4 µM [inhibitor, partial curve, poor fit] |  |  |
| O=C(C1CCC1)N1CCC(Oc2cccnc2)C1 (stereo not drawn) |  |  | inactive |
| CNC(=O)c1cc(C2CC2)nc2onc(C3CCN(C(=O)Nc4ccc(C)c(F)c4)C3)c12 (stereo not drawn) | inconclusive: 44.7 µM [inhibitor, partial curve, poor fit] |  |  |
| N#Cc1cccc(CN2CCc3ncc(C(=O)NCc4ccccc4)n3CC2)c1 | inconclusive: 5.01 µM [inhibitor, full curve, poor fit] |  |  |
| COc1ccccc1N1CCN(C(=O)C[C@@H]2CCNC[C@@H]2Cc2cc(COc3ccccc3)on2)CC1 | inconclusive: 22.4 µM [inhibitor, full curve, poor fit] |  |  |
| CO[C@H]1[C@H](NC(=O)c2c(F)ccc(C)c2F)c2ccccc2C12CCNCC2 |  | inactive: -6.98% |  |
| Cc1ccc(CN2C(=O)NC3(CCCN(C(=O)c4ccc5c(c4)OCO5)C3)C2=O)cc1 (stereo not drawn) | inconclusive: 35.5 µM [inhibitor, partial curve] |  |  |

| SMILES | Potency | activity change, negative = cytotoxicity | outcome |
| --- | --- | --- | --- |
| Cc1cc(C(=O)N2CC(c3nnc(-c4ccncc4)o3)C3(CCOCC3)C2)nn1C (stereo not drawn) | inconclusive: 79.4 µM [inhibitor, partial curve, poor fit] |  |  |
| COc1cccc(-c2noc(Nc3ccc4c(c3)OCO4)n2)c1 | inconclusive: 44.7 µM [inhibitor, partial curve, poor fit] |  |  |
| Cc1ccc(OCC(=O)N2CCC(Cc3nc(-c4ccc(F)cc4)no3)CC2)cc1 | inconclusive: 44.7 µM [inhibitor, partial curve, poor fit] |  |  |
| O=C(Cc1ccccc1)N1CCC(Oc2cnc3c(ccn3-c3cncnc3)c2)CC1 | inconclusive: 39.8 µM [inhibitor, partial curve, poor fit] |  |  |
| Cn1nc(C2CC2)cc1NC(=O)c1ccc(Cl)cc1 | inconclusive: 70.8 µM [inhibitor, partial curve, poor fit] |  |  |
| COCCNC(=O)c1cnc2n[nH]c(-c3ccccc3OC)c2n1 | inconclusive: 44.7 µM [inhibitor, full curve, poor fit] |  |  |
| Cc1cccc(CC(=O)N2C[C@@H](COc3ccccc3)[C@H](C(N)=O)C2)c1 | inconclusive: 39.8 µM [inhibitor, partial curve, poor fit] |  |  |
| CCC1Oc2ccc(NC(=O)c3ccccc3F)cc2CN(Cc2ccc3c(c2)OCO3)C1=O (stereo not drawn) | inconclusive: 50.1 µM [inhibitor, partial curve, poor fit] |  |  |
| CCN1c2cc(C(=O)NC3CCCCCC3)ccc2C(=O)N2CCCCC21 (stereo not drawn) |  | inactive: -21.1% |  |
| COc1cccc(C(=O)NC2CCCN(c3ccc4nnc(C)n4n3)C2)c1 (stereo not drawn) | inconclusive: 44.7 µM [inhibitor, partial curve] |  |  |
| COc1ccc(CN(C(=O)c2ccco2)c2ccc(CC(=O)NCCc3ccccc3)cc2)cc1 | inconclusive: 50.1 µM [inhibitor, partial curve, poor fit] |  |  |
| O=C(Nc1cccc(F)c1)C1=NO[C@@H]2CN(c3ccccn3)C[C@H]12 | inconclusive: 79.4 µM [inhibitor, partial curve] |  |  |
| COCCN1C(=O)c2cccn2CC1CNC(=O)c1cn[nH]c1-c1ccc(F)cc1 (stereo not drawn) |  | inactive: 4.46% |  |
| CCOc1ccccc1CN1CCCN(Cc2ccncc2)C(c2ccccc2)CC(=O)NCC1 (stereo not drawn) | inconclusive: 44.7 µM [inhibitor, partial curve, poor fit] |  |  |
| O=C(c1ccc(F)cc1Cl)N1CCC(Cc2nc(-c3ccc(F)cc3)no2)CC1 | inconclusive: 25.1 µM [inhibitor, partial curve, poor fit] |  |  |
| Nc1nc(NCc2ccc(N3CCCC3=O)cc2)cc(C2CC(O)C2)n1 (stereo not drawn) | inconclusive: 79.4 µM [inhibitor, partial curve] |  |  |
| CCOc1ccccc1NC(=O)Cn1c(=O)n(CC)c(=O)c2c1cc(C)n2C |  |  | inactive |
| O[C@H]1CC[C@@H](Cc2cc(CN3CCN(c4ccccc4)CC3)on2)O[C@@H]1CNCc1ccccc1 | inconclusive: 79.4 µM [inhibitor, partial curve] |  |  |
| CC(=O)N1CCc2c(nc(-c3cccnc3)nc2NCc2cc(C)on2)C1 | inconclusive: 89.1 µM [inhibitor, single point] |  |  |
